# Measured values reported in PubChem BioAssay AID1963318 (National Center for Advancing Translational Sciences (NCATS), 2024).
# The campaign covered roughly 1,300 compounds. About 100 (7.7%) were called active. Inconclusive means that the source gave no clear call. Such entries were picked first, then a sample of the others. Calls come from the whole dose curve; as a rule, active = well fitted activation curve with a large enough effect; inconclusive = small, poorly fitted or top-dose-only effect; inactive = no such curve, though single readings can be large or run the other way. Where the call is inconclusive, the potency comes from a doubtful curve fit.
# Target: Luciferin 4-monooxygenase (Photinus pyralis) (UniProt P08659)
# Chain of UniProt P08659 (P08659 whole entry, looked up): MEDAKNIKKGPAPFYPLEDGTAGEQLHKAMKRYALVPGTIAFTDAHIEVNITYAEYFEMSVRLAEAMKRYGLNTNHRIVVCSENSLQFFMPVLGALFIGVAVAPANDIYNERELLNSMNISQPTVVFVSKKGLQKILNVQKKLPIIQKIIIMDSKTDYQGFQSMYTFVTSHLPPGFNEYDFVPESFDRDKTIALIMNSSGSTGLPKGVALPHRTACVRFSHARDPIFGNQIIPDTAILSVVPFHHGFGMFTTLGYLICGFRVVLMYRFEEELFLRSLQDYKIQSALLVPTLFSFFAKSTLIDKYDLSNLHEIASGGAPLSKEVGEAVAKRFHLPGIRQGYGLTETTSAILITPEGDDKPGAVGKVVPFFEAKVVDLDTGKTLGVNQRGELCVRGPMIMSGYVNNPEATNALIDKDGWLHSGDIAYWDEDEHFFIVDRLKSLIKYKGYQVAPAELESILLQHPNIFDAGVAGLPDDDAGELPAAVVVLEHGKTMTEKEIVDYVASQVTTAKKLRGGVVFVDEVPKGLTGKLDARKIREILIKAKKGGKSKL
# Experiment: Firefly luciferase (FLuc-C-HiBiT) SDR gain of signal screen - without ATP; note: nearly all actives have a fitted effect of over 55% in size
# Details: Purified FLuc-C-HiBiT, Nano-Glo HiBiT luminescence, no ATP; series mostly up to 32.7 µM
# Outline: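 Gain-of-signal structural dynamics response readout: luminescence read 5-10 min after adding Nano-Glo HiBiT reagent to 10 nM FLuc-C-HiBiT (ATP omitted), following >30 min compound preincubation at room temperature, light-protected.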
# Potency is the fitted concentration of half-maximal effect; tags give direction and shape of the fitted curve.
row,Compound,Potency
1,COc1ccc(NC(=O)Nc2cccc(-c3ccc(N4CCCCC4)nn3)c2)c(OC)c1,"inconclusive: 8.81 µM [activator, partial curve]"
2,CCCC(=O)Nc1cnc(-c2ccc(C)cc2)nc1,"inconclusive: 12.4 µM [activator, partial curve]"
3,O=C(NCCC1CCN(C(=O)Nc2cc(F)cc(F)c2)CC1)c1ccc(F)cc1,inactive
4,Cc1cccc(NC(=O)c2c(N)sc3c2CCC(C)C3)c1 (stereo not given),inactive
5,COc1ccc(Nc2nc(-c3cccc(OC)c3)no2)cc1,inactive
6,Cc1ccc(NC(=O)Nc2ccc(C)n(CC(=O)NCCC(C)C)c2=O)cc1,"inconclusive: 2.79 µM [activator, full curve]"
7,Cc1c(-c2ccccc2F)[nH]c2ccc(CNC(=O)C3CCCN(C(N)=O)C3)cc12 (stereo not given),inactive
8,Cc1ccc(NC(=O)Nc2ccc(C)n(CC(=O)NC(C)c3cccnc3)c2=O)cc1 (stereo not given),active: 7 µM
9,COc1ccc(C)cc1NC(=O)C1CCN(C(=O)c2ncn3c2COC(c2ccc(F)cc2)C3)CC1 (stereo not given),inactive
10,Nc1c(C(=O)Nc2ccc(C(=O)O)cc2)sc2nc3c(cc12)CCCC3,active: 11.1 µM
11,CCOc1cc(C(=O)Nc2ccc(-c3nc4ccccc4s3)cc2Cl)cc(OCC)c1OCC,inactive
12,Cc1ccc(-c2cc3c(=O)n(CCNC(=O)c4ccccc4F)ccn3n2)c(C)c1,"inconclusive: 15.7 µM [activator, partial curve, poor fit]"
13,Cc1cn2nc(C(=O)Nc3ccc(C(=O)NCCc4cccs4)cc3)cc2c(=O)[nH]1,"inconclusive: 14 µM [activator, partial curve, poor fit]"
14,COc1cccc(CN2CCc3nc(C(=O)Nc4nc(C)cs4)oc3CC2)c1,"inconclusive: 40.4 µM [activator, partial curve, poor fit]"
15,Cc1ccc(-n2ncc3c(NC4CCCC4)ncnc32)cc1,"inconclusive: 5.56 µM [activator, partial curve]"
16,CC1CCCN(c2ncnc3c2cnn3-c2ccc(F)cc2)C1 (stereo not given),active: 2.21 µM
17,CNc1ccc2cc(-c3nc4ccc(C(=O)O)cc4s3)ccc2c1,active: 1.11 µM
18,CCOc1cccc2cc(-c3nc4ccc(C(=O)O)cc4[nH]3)c(=O)oc12,"inconclusive: 11.1 µM [activator, partial curve, poor fit]"
19,COc1cccc(CNC(=O)Nc2cccc(-c3ccc(N4CCOCC4)nn3)c2)c1,"inconclusive: 12.4 µM [activator, partial curve]"
20,O=C(CSc1nnc2ccccn12)Nc1cccc(-c2nc3ccccc3s2)c1,inactive
